Measurements as given in the supplement of paper PMC4604168 (melanoma cell lines).
The other results are listed elsewhere or left out. Repeats are few or missing, and single values can be far off.
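Note: cells treated in 1,536-well plates, then fixed and DAPI-stained, with nuclei counted from automated high-throughput microscope images.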

Each compound was assayed on SkMel28 (assay: cell count relative to DMSO control; melanoma cells; higher = more viable cells). Conditions: library dose: standard library concentration; 72 h.
For `COCC[n+]1c2c(n(Cc3cnccn3)c1C)C(=O)c1ccccc1C2=O` + O=c1cc(-c2cccc3c2Sc2ccccc2S3)oc(N2CCOCC2)c1 [KU55933] (first compound 0.002 µM, partner dose 5 µM), the cell count was 48.6%.
`Nc1cccc2c1CN(C1CCC(=O)NC1=O)C2=O` (centres undefined) [lenalidomide] + O=C(CCCCCCC(=O)Nc1ccccc1)NO [vorinostat] (first compound 5 µM, partner dose 0.4 µM) gave a cell count of 35.8%.
For `OCc1c[nH]c2ccccc12` [Indole-3-carbinol] + Cc1cc(N2CCOCC2)cc2[nH]c(-c3c(NC[C@@H](O)c4cccc(Cl)c4)cc[nH]c3=O)nc12 [BMS536924] (first compound 4 µM, partner dose 1 µM), the cell count was 78.8%.
Compound `Clc1ccc(Nc2nnc(Cc3ccncc3)c3ccccc23)cc1` [vatalanib] + NC(=O)Nc1cc(-c2cccc(F)c2)sc1C(=O)N[C@H]1CCCNC1 [AZD7762] (first compound 10 µM, partner dose 0.1 µM) has a cell count of 46.9%.
